Source: article PMC7819943, “Rice protein-binding microarrays: a tool to detect cis-acting elements near promoter regions in rice”
This is one part of the list.

These sequences were tested against T1, OsWOX13 (Oryza sativa, UniProt Q5QMM3 1-267) (assay: protein-binding microarray (RPBM); PBS, 2% BSA, 51.3 ng/ul salmon testes DNA, 50 uM zinc acetate, 200 nM TF, 25 C, 1 h; high values mean tight binding). Conditions: protein: recombinant; tags: N-terminal polyhistidine and DsRed monomer fusion (pET32a); label: CyDye5-dUTP incorporated in the synthesized complementary strand; 3' TTTTT single-stranded linker to array surface; dsDNA, one strand shown.
T1 sequence: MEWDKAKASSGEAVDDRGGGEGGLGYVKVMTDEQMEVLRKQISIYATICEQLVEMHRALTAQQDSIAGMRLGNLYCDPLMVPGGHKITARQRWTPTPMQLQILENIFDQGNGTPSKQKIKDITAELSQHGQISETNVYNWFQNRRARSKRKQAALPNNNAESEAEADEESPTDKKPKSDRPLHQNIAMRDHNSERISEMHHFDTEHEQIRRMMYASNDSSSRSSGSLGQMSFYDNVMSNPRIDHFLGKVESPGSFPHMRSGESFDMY
Summary of the method: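 The binding signal for each feature is its fluorescence intensity in arbitrary units. An Axon 4000B scanner was used to read a custom Agilent array that had been made double-stranded with Cy5-dUTP primer extension, blocked with 2% BSA, incubated at 25 °C for 1 h with 200 nM protein in PBS, 2% BSA, salmon testes DNA and 50 µM zinc acetate, and washed. The protein was an N-terminal polyhistidine–DsRed transcription factor fusion from E. coli BL21-CodonPlus, purified on Ni–NTA.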

Sequence | binding signal
ATTTACTGATAGAGCATGAATTTCCATTCTACTCTTTATGCGGAGTCACCTAGTGCAG | 6860 fluorescence intensity (a.u.)
ACAGCGGTTAATTAACAGGTTAAGCGCAGGGTATCGACGCCGGAGTCACCTAGTGCAG | 14900 fluorescence intensity (a.u.)
CAACTTCCCAATTAACACCGGTAATGGGGACTTGACACTTCGGAGTCACCTAGTGCAG | 13400 fluorescence intensity (a.u.)
GCGAGCAAGATTGGAATCAGCGTGGTGGTGGTAGGGGAGGCGGAGTCACCTAGTGCAG | 8240 fluorescence intensity (a.u.)
AATAAGAATAATTATGAATAGAAACAGACCCTGACACTGCCGGAGTCACCTAGTGCAG | 6170 fluorescence intensity (a.u.)
CTGCTCAATCAATCATGGCGCATCATCTCGTCGTCGTGCTCGGAGTCACCTAGTGCAG | 31200 fluorescence intensity (a.u.)
GGGAGAGGGGTGTGGGGCGGAGAGGGAGAGGGAGATGGGACGGAGTCACCTAGTGCAG | 5890 fluorescence intensity (a.u.)
GGTAATTAACCGACGGTAAAGGAAACCGTAAGTCGTCTCTCGGAGTCACCTAGTGCAG | 22400 fluorescence intensity (a.u.)
ATCCATCATCTAACTGATTGACGGCTTGCTCCTCCTTTTCCGGAGTCACCTAGTGCAG | 36300 fluorescence intensity (a.u.)
ACGCAAAATTATCTTGTCGTCTCAAGCTCAGATGTTTATGCGGAGTCACCTAGTGCAG | 3420 fluorescence intensity (a.u.)
TAACCTGATTGGTGAAGGTCCCTTCAAATCCTGCATGATTCGGAGTCACCTAGTGCAG | 30700 fluorescence intensity (a.u.)
AATATGAGACAATTAATTGGGTTCATAGTTGTGCTTAATTCGGAGTCACCTAGTGCAG | 10400 fluorescence intensity (a.u.)
AAATAACAAAATTACAAGTTTAACATAAATATGTAATCACCGGAGTCACCTAGTGCAG | 10300 fluorescence intensity (a.u.)
AAGCCTATTTATGATATAATCACACATGAATACACAATCACGGAGTCACCTAGTGCAG | 4600 fluorescence intensity (a.u.)
CCTACACAGTACAGGCCCACTAATTGGCCCAACTGACCTACGGAGTCACCTAGTGCAG | 3220 fluorescence intensity (a.u.)
ATGACAAGAAAGAAAATCAATTAGCGTCTCGCGTATTACTCGGAGTCACCTAGTGCAG | 4120 fluorescence intensity (a.u.)
GACTTGATGGGCCTTGATGAGCCCAGCCCATTATACCGGCCGGAGTCACCTAGTGCAG | 13400 fluorescence intensity (a.u.)
AACCAAATCATTGGGAAGGCCAAACCTAGACGCAGACTCGCGGAGTCACCTAGTGCAG | 4370 fluorescence intensity (a.u.)
TCTTCTACGATAATTAATTACTCCGGTGCACGTAGGTCAACGGAGTCACCTAGTGCAG | 8510 fluorescence intensity (a.u.)
CTCAACATGAACTTCTTGATTACCTGTGACCCAGCCACGGCGGAGTCACCTAGTGCAG | 3150 fluorescence intensity (a.u.)
CCTTGGCCTTAATTATTGACGTAGTACGTACACTTGATGCCGGAGTCACCTAGTGCAG | 8540 fluorescence intensity (a.u.)

Sequence | binding signal
AAGAATAATTAGCCTAAATACAAGTGCATGTGTCAAATGTCGGAGTCACCTAGTGCAG | 6230 fluorescence intensity (a.u.)
AAAAGTAATTTAGACATATCATAAAAGTAATTTATGATTTCGGAGTCACCTAGTGCAG | 9340 fluorescence intensity (a.u.)
GTGATACAAATCAAATCAGATTTGCCCAATAATTGAGCGACGGAGTCACCTAGTGCAG | 25900 fluorescence intensity (a.u.)
TTCTAATTAATATGTCATTAGCAAATGTTTACTGTACCACCGGAGTCACCTAGTGCAG | 38300 fluorescence intensity (a.u.)
ACTGGTTGAATAATTTGCAGAAATTATCTTCTGAAGTGCGCGGAGTCACCTAGTGCAG | 11600 fluorescence intensity (a.u.)
TCATCATTGATGGATTTGGAGCAGCAGGTCAAAACTGTGACGGAGTCACCTAGTGCAG | 5160 fluorescence intensity (a.u.)
ACAAGATAACATAAATTATAGTGAGCCTGTTATTGTTTAACGGAGTCACCTAGTGCAG | 8724 ± 23.3 fluorescence intensity (a.u.)
GTAATTGATAGTACTGTGAAAATACTACTCCTGATGAGTTCGGAGTCACCTAGTGCAG | 51800 fluorescence intensity (a.u.)
TCTAATTAACACCTTTCACTTATGCATTATGCAAATACAACGGAGTCACCTAGTGCAG | 18200 fluorescence intensity (a.u.)
AGTCATCTGTAATTTGCAGACAGAAATGGAGCTTTCCATCCGGAGTCACCTAGTGCAG | 5500 fluorescence intensity (a.u.)
TTCAATTAATCTTGCTATAACTGCCGTGTCGGGAGACAACCGGAGTCACCTAGTGCAG | 9740 fluorescence intensity (a.u.)
GGCAAAACATGCAAATTGACCAATGGTACGTGACAGACAGCGGAGTCACCTAGTGCAG | 5440 fluorescence intensity (a.u.)
TTGTATAAATAAGTTATTAGATTGACTACAGATGAATTGACGGAGTCACCTAGTGCAG | 20500 fluorescence intensity (a.u.)
TCCAAAATTTTAGTTTATTCAATTTAGTTGGAATTAAATTCGGAGTCACCTAGTGCAG | 4700 fluorescence intensity (a.u.)
ATATATATATATATATATATATATATATATATATAATGGGCGGAGTCACCTAGTGCAG | 15800 fluorescence intensity (a.u.)
AATATACAATGTGATTAGTATTTTGGATCAATGACGAGGTCGGAGTCACCTAGTGCAG | 12700 fluorescence intensity (a.u.)
TGTATATTTGTGGATTGATATATCATATATTAATCTATTACGGAGTCACCTAGTGCAG | 3170 fluorescence intensity (a.u.)
GCCGTGGATGAAACTTTGATTGTCGTATAGGCTGAGCTCTCGGAGTCACCTAGTGCAG | 4720 fluorescence intensity (a.u.)
AAAGTGATGATTTACTAAATTTTCTAAATGAACGGAGCTACGGAGTCACCTAGTGCAG | 21400 fluorescence intensity (a.u.)
CAAACTAATAATTTGGCTTTTGGCTTCTGCTGAAGCAAGTCGGAGTCACCTAGTGCAG | 4830 fluorescence intensity (a.u.)
GTGGGAAATTGGAAGAGAAATTAACTTATGTGTAGTGTTTCGGAGTCACCTAGTGCAG | 19800 fluorescence intensity (a.u.)

Sequence | binding signal
TTATGATTTGACAATGTGGTGCTACAGTAAACATTTGCTACGGAGTCACCTAGTGCAG | 42700 fluorescence intensity (a.u.)
ACCCTTAGTTGATTTACAAATTCCACGTGCACCGAAGTGGCGGAGTCACCTAGTGCAG | 17000 fluorescence intensity (a.u.)
GGACTGCACTATGAATTAATTGGATCACACCTGCTGCTAGCGGAGTCACCTAGTGCAG | 5650 fluorescence intensity (a.u.)
TAAGTAATTAATTAATCAATCAATTAATCAATTATTATCCCGGAGTCACCTAGTGCAG | 52600 fluorescence intensity (a.u.)
ATTAGTGTATCAATAATTAAGTTTTAATTATTTTAAACTTCGGAGTCACCTAGTGCAG | 17400 fluorescence intensity (a.u.)
AGAATTGATGTCCAGACTGGAATAAAGATGATCTTGAAGCCGGAGTCACCTAGTGCAG | 10800 fluorescence intensity (a.u.)
GGTGTCTCTGATTAAGACTAATTGGAGAGGCCTCTCCAATCGGAGTCACCTAGTGCAG | 6200 fluorescence intensity (a.u.)
TTTATTAATTTTATAAATTTTAAAATGAGATGGACGGTAACGGAGTCACCTAGTGCAG | 18600 fluorescence intensity (a.u.)
AGTAATTAACAAAATACTTTTGTTCATATTTATTAATATCCGGAGTCACCTAGTGCAG | 19500 fluorescence intensity (a.u.)
CTCTCTGTCAAGTAGATTGAAGTGGATTTAGAGAAAATTACGGAGTCACCTAGTGCAG | 3840 fluorescence intensity (a.u.)
AGATGTAATTGACGAAATCTCCTAGGTCTCTTGTGCAAATCGGAGTCACCTAGTGCAG | 24600 fluorescence intensity (a.u.)
AGTGATTATTTATTGGAGTACGATTGAGACCCTTGGTACGCGGAGTCACCTAGTGCAG | 33400 fluorescence intensity (a.u.)
ATACTTAAATTTAATGCTACTTATCACATGATGTCTTGGACGGAGTCACCTAGTGCAG | 8270 fluorescence intensity (a.u.)
ACTAATTTACCCTCTGCCATTTTGACGCGCTCTATCGTGCCGGAGTCACCTAGTGCAG | 21300 fluorescence intensity (a.u.)
CATCAGCCATGATTGAGATGGAATATGACTCCACAGTATTCGGAGTCACCTAGTGCAG | 15200 fluorescence intensity (a.u.)
TTGATATATATTATCATCTGATGTGATTTCTTGATATCCTCGGAGTCACCTAGTGCAG | 8250 ± 601 fluorescence intensity (a.u.)
CCCAACTAATTAATCAAACCATGCATACACAATCAAAGATCGGAGTCACCTAGTGCAG | 11800 fluorescence intensity (a.u.)
TGGGGATGGCTAATTTACCAATAATGCATGTAGAGAGGATCGGAGTCACCTAGTGCAG | 5880 fluorescence intensity (a.u.)
AACCAATTTATATTGTCAGAAGAAAATGCATTATATAGGTCGGAGTCACCTAGTGCAG | 6730 fluorescence intensity (a.u.)
AATAGTGTTAAATCCATTTAATTATGTTATTGCATCTTAGCGGAGTCACCTAGTGCAG | 3740 fluorescence intensity (a.u.)
ATGACAATCACCCCAACTATGAATAGAGTGGCATATCCTGCGGAGTCACCTAGTGCAG | 5360 fluorescence intensity (a.u.)

Sequence | binding signal
AAATAATTATCCGTAAATAAGAGTATTGTGTCTTCTAGAACGGAGTCACCTAGTGCAG | 14800 fluorescence intensity (a.u.)
CTTTAATAATTAAAGTAAACCCAGTCAACTCACCCATTTTCGGAGTCACCTAGTGCAG | 7880 fluorescence intensity (a.u.)
ATCAGAAAAGTTTCTTCGCTGATTGATCGCCAGAAATCGCCGGAGTCACCTAGTGCAG | 17500 fluorescence intensity (a.u.)
TCCGTGAATTAACTGGCACGCGTGTATATTAGTTCATGTGCGGAGTCACCTAGTGCAG | 13900 fluorescence intensity (a.u.)
CACCAATTTAACACGATTCCAAACCACGGACTCCATCTGGCGGAGTCACCTAGTGCAG | 3380 fluorescence intensity (a.u.)
AACTTGTCATAATTTGAAATTCAAATTCAAATTATTGAAACGGAGTCACCTAGTGCAG | 7400 fluorescence intensity (a.u.)
TCCTAAACTAATTTTACTCATTCGACGGTACTAGTACTCGCGGAGTCACCTAGTGCAG | 13100 fluorescence intensity (a.u.)
ATCACAATTATTGAAGTCTATTTGTAAATCTCCAACCATACGGAGTCACCTAGTGCAG | 10100 fluorescence intensity (a.u.)
CGGCTGAGATTGGAGCCAATCATCTTATCATAAGACCCTCCGGAGTCACCTAGTGCAG | 38800 fluorescence intensity (a.u.)
ACTTAATTAATTGTAGTTGAGTTATCATAAGAACCAATTACGGAGTCACCTAGTGCAG | 11300 fluorescence intensity (a.u.)
CTGATGGACAGGGAGACGATAAGGAAAGGGGTGACTTGCACGGAGTCACCTAGTGCAG | 4860 fluorescence intensity (a.u.)
CGCAGATCAATCACATGTCAACAATAACAAATCCATCAATCGGAGTCACCTAGTGCAG | 13800 fluorescence intensity (a.u.)
GTATAGATTTAATTACAACGAACACAACGGTGTAATCAGACGGAGTCACCTAGTGCAG | 16000 fluorescence intensity (a.u.)
TTTGATTAGTTTGTCTGAGAACTCCGCCCTGTCCATGATGCGGAGTCACCTAGTGCAG | 41600 fluorescence intensity (a.u.)
AGCTTGTCACCTGATTGAGAAGAAAGGACTTGATTGCTTTCGGAGTCACCTAGTGCAG | 17100 fluorescence intensity (a.u.)
CACCAATTACCATTCTTAACTACTGTTATTTTAGGGAGAGCGGAGTCACCTAGTGCAG | 22300 fluorescence intensity (a.u.)
AAGTAATTATTAATTCTTTTCCTATCCTTTGATGTATTGTCGGAGTCACCTAGTGCAG | 19400 fluorescence intensity (a.u.)
TTCCCAATTCTAAATTGATCAATAGTCAATCATACAATGTCGGAGTCACCTAGTGCAG | 21600 fluorescence intensity (a.u.)
ATGAATTGGATTAGCACTACTCCAGAAAGTGATTATGGTTCGGAGTCACCTAGTGCAG | 7850 fluorescence intensity (a.u.)
TCGTTAATTTTCTTGCGAGAGGGAGGATGGCACGTGGGTTCGGAGTCACCTAGTGCAG | 16000 fluorescence intensity (a.u.)
ATTAACTTTTAAACATACATTTAATTAATTTTATTATTCACGGAGTCACCTAGTGCAG | 8370 fluorescence intensity (a.u.)
